In all, about 150,000 compounds went through this assay and about 540 (0.36%) showed an effect of 50% or more. Some of the results follow.

The subject of the assay is Plasmodium falciparum. Briefly: Primary screen in NF54 nanoGlo assay, in single point, at 2uM, 72h; a lower Z score goes with more inhibition. It counts as functional, Erythrocyte. The following applies: timepoint 72 hour.
For `CC[C@@H](COC)n1cnc(-c2ccccc2)c1-c1ccc2onc(C)c2c1`, the “% Inhibition” value was -1% and the Z score was found to be 0.13.

As for `CCOc1ccc2oc(-c3ccccc3)c(C(=O)N(C)C3CC4CC(=O)N(C)CC4C3)c2c1` (centres undefined), the “% Inhibition” value is -1% and the Z score turned out to be 0.24.

`O=C1CC[C@H](NCCCc2nc3cc(Cl)ccc3[nH]2)CCN1Cc1ccccc1`: the “% Inhibition” value is 7% and the Z score is given as -1.09.

On to `CCc1cc(=O)n2nc(NC3CCN(CCOc4ccc(F)cc4)CC3)sc2n1`, for which the “% Inhibition” value is reported as -1% and the Z score is 0.16.

Consider `CO[C@H]1CCN(c2ccc(NC(=O)c3c[nH]c4ccccc34)cc2)C1`, for which the “% Inhibition” value was -8% and the Z score turned out to be 1.4.

Consider `CN(C(=O)Cc1c[nH]c2ncccc12)C1CC2CCC(C1)N2C(=O)OC(C)(C)C` (centres undefined), for which the “% Inhibition” value is reported as 13% and the Z score is -2.27.

As to `CCCNc1ccc(C#N)cc1NC(=O)COc1c(C)nn(C)c1C`, the “% Inhibition” value is recorded as -15% and the Z score was 2.7.

With `CCOc1ccccc1Cn1cc(-c2cnn(Cc3ccccc3OCC)c2)cn1`, the “% Inhibition” value is recorded as -9% and the Z score was found to be 1.48.

Regarding `c1cnc2ccc(OCc3csc(C4CCCC4)n3)cc2c1`, the “% Inhibition” value is listed as -7% and the Z score is 1.46.

On to `O=C(C[C@@H]1C[C@H]2O[C@H](CNC3CCNCC3)[C@@H](O)[C@H]2O1)N1CCS(=O)(=O)CC1`, for which the “% Inhibition” value is -6% and the Z score was determined as 0.86.

With `c1ccc(-c2ncn(Cc3ccncn3)c2-c2c[nH]nc2C2CCCCC2)cc1`, the “% Inhibition” value is -5% and the Z score was found to be 0.94.

As for `Cc1cccc(-c2cc(Nc3cccc(C(=O)NCc4ccc(C(C)C)cc4)c3)ncn2)c1`, the “% Inhibition” value was -13% and the Z score stood at 2.19.

With `CCc1cc(N2CCC(Nc3nc4ccccc4n3C)CC2)ncn1`, the “% Inhibition” value is -12% and the Z score is recorded as 2.16.

As to `CN(Cc1ccccc1)c1nc2nonc2nc1NCCN1CCC[C@H](O)C1`, the “% Inhibition” value is -2% and the Z score came to 0.29.

`COc1ccc2c(c1)c(C(=O)C1=CN(C)CCc3c1[nH]c1ccccc31)c(C)n2C`: the “% Inhibition” value was -14% and the Z score was 2.41.

As for `FC(F)c1nnc2ccc(N3CCC[C@H](c4n[nH]c(C5CCCCC5)n4)C3)nn12`, the “% Inhibition” value is -4% and the Z score came out at 0.68.

Consider `CC(C)N1CCC(NC(=O)CN2CCC3(CCOCC3)CC2)CC1`, for which the “% Inhibition” value was -5% and the Z score turned out to be 1.15.

`Cc1c(F)cccc1S(=O)(=O)N1CC[S+]([O-])C(C)C1C` (centres undefined): the “% Inhibition” value is on record as -3% and the Z score turned out to be 0.65.

As for `COC(=O)[C@@H](Cc1c[nH]cn1)NC(=O)c1ccc(OC(F)F)cn1`, the “% Inhibition” value is -2% and the Z score turned out to be 0.39.

On to `Cc1cccc2c(-c3ccc(N4CCN(C)CC4)nn3)c[nH]c12`, for which the “% Inhibition” value is on record as -16% and the Z score is given as 2.75.

`CC1(C(=O)NC2CCCN(S(C)(=O)=O)C2)CC2CCC1O2` (centres undefined): the “% Inhibition” value was found to be 1% and the Z score is -0.09.

In the case of `c1ccc2c(c1)CNCC1(CCN(CC3CCNCC3)CC1)O2`, the “% Inhibition” value worked out at 7% and the Z score is -1.14.

For `C[C@@H](CC(=O)Nc1ccn(CC(=O)N2CCOCC2)n1)c1ccccc1C(F)(F)F`, the “% Inhibition” value is -12% and the Z score amounted to 2.43.

As for `O=C(NC[C@@H]1CCCN1)c1cccc(-c2cc(F)c(F)cc2O)c1`, the “% Inhibition” value came to 6% and the Z score was -1.29.

Regarding `Fc1cncc(-c2cnc(NCc3cc(Cl)ccc3OCC3CC3)nc2)c1`, the “% Inhibition” value is given as -6% and the Z score was 0.86.

For `COc1cccc(-c2nc(C(=O)N3CCOCC3(C)C)c(C)[nH]2)c1`, the “% Inhibition” value is -12% and the Z score came to 1.84.

For `FC(F)(F)c1ccnc(Nc2ccc(NCc3ccccn3)cc2)n1`, the “% Inhibition” value turned out to be 10% and the Z score is reported as -2.24.

On to `CCC(C)Oc1cc(C(=O)N2CCC[C@@H]2c2csc(C)n2)ccn1` (some centres undefined), for which the “% Inhibition” value is -7% and the Z score worked out at 1.

For `CC(=O)NC(C)(C)c1noc(-c2ccc(F)cc2O)n1`, the “% Inhibition” value worked out at 1% and the Z score is on record as -0.16.

With `Cn1cc(-c2ccnc(N[C@H](CO)Cc3ccc(Cl)cc3)n2)cn1`, the “% Inhibition” value worked out at 0% and the Z score was -0.02.

On to `c1cnc2[nH]cc(CCNc3ncnc4c3CCC4)c2c1`, for which the “% Inhibition” value is listed as -2% and the Z score is given as 0.43.

Regarding `COc1ccc(-c2nnc(CN[C@H](c3ccc(C4CCCCC4)cc3)C(C)C)o2)cc1`, the “% Inhibition” value was -2% and the Z score was determined as 0.37.

Regarding `C[C@@H]1CN(c2ccc(NCc3c[nH]nc3-c3ccc(C(F)(F)F)cc3)cc2)C[C@H](C)O1`, the “% Inhibition” value is -15% and the Z score turned out to be 3.14.

For `Cc1n[nH]c(C)c1CN1CCc2nc(N)nc(NC3CCCC3)c2CC1`, the “% Inhibition” value turned out to be 9% and the Z score was -1.67.

For the molecule `N#Cc1ccc(OC2CCC(Nc3ncnc(N)c3Cl)CC2)nc1` (centres undefined), the “% Inhibition” value is -9% and the Z score is reported as 1.6.

On to `CCc1cnc(N2CCC(N3CCC[C@H](C(=O)N4CCOCC4)C3)CC2)nc1`, for which the “% Inhibition” value turned out to be 11% and the Z score was -2.28.

As for `CN(Cc1ccc2nccnc2c1)C1CCN(c2ccc(C(=O)N3CCC[C@H](CO)C3)cc2)CC1`, the “% Inhibition” value is -8% and the Z score is on record as 1.33.

`c1cc(CCN2CCN(C3CCC4(CCNCC4)CC3)CC2)ccn1`: the “% Inhibition” value was -2% and the Z score is 0.41.

On to `CC(C)CN1CCCN(Cc2cccc3[nH]ccc23)CCNC(=O)CC12CCCCC2`, for which the “% Inhibition” value is listed as -8% and the Z score came out at 1.32.

On to `Cc1cc(C(=O)NCC2CCN(C(=O)CN3CCCN(C)CC3)CC2)cc(C)n1`, for which the “% Inhibition” value was determined as 7% and the Z score was -1.31.

Turning to `CCOc1cc(O)ccc1NC(=O)[C@@](O)(CC)c1cccc(Cl)c1`, the “% Inhibition” value is -9% and the Z score was determined as 2.03.

`CN(C)Cc1cccc(CNc2ncnc3c2CCNC3)c1`: the “% Inhibition” value was -6% and the Z score was found to be 1.35.

For `COc1ccc(-c2cc(-c3ccccc3O)n([C@@H]3C(=O)Nc4ccc(Br)cc43)n2)cc1`, the “% Inhibition” value was 28% and the Z score is -4.9.

Turning to `CN1CCC[C@H](Nc2nc(NC3CC3)nc3c2CCN(CCN)CC3)C1`, the “% Inhibition” value is -7% and the Z score stood at 1.31.

Take `Cc1[nH]c(-c2ccccc2)nc1CN(C)CCN1CCCCC1`: the “% Inhibition” value is -9% and the Z score turned out to be 1.56.

As for `O=C(NC[C@H](c1ccccc1)c1c[nH]c2ccccc12)C1CCN(c2ccc3nnnn3n2)CC1`, the “% Inhibition” value came out at 11% and the Z score is -1.73.

For the molecule `FC(F)(F)c1cc(N2CCC[C@H]2c2nc3ccccc3[nH]2)nc(-c2ccncc2)n1`, the “% Inhibition” value is given as -4% and the Z score is given as 0.67.

For the molecule `Cc1ccc(CS(=O)(=O)N[C@H]2CCCS(=O)(=O)C2)c(F)c1`, the “% Inhibition” value is -6% and the Z score came to 1.23.

As to `CC1CC(Nc2cc(N3CCOCC3)ncn2)CCN1Cc1ccccc1` (centres undefined), the “% Inhibition” value is -3% and the Z score is recorded as 0.5.

Take `OC(CNCC(c1ccccc1Cl)c1c[nH]c2ccccc12)COCc1ccc2c(c1)OCO2` (centres undefined): the “% Inhibition” value is recorded as 0% and the Z score was -0.04.

For the molecule `Cn1nncc1C(=O)Nc1ccc(-c2nc3cc(F)c(F)cc3[nH]2)cc1`, the “% Inhibition” value was 4% and the Z score is listed as -0.86.

Regarding `O=C([C@@H](F)CN(Cc1ccccc1)Cc1ccccc1)N1CCn2cnnc2C1`, the “% Inhibition” value is -5% and the Z score was determined as 0.79.

The % Inhibition is the relative decrease from the control value, in per cent.

For the origin of these results see ChEMBL document CHEMBL5308541, “MAIP: An Open-Source Tool to Enrich High-Throughput Screening Output and Identify Novel, Druglike Molecules with Antimalarial Activity” (ACS Med Chem Lett, 2023).
